# The supplement of paper PMC7826260
# Some of the results follow. The data describe in vitro nicking of single-stranded DNA by Rep domains (1 h at 37 °C, 3 µM enzyme); the outer parts of the 90-letter strands are left off. Values are log2 of uncut reads against the no-enzyme pool; uncut sequences lie near 0, cut ones below; no hit call is given. Reads are scaled to the total, so uncut sequences can rise above 0 when many others are cut.
# System: T1, Rep nickase domain of tomato golden mosaic virus
# T1 sequence (protein, residues 1-124, tag omitted): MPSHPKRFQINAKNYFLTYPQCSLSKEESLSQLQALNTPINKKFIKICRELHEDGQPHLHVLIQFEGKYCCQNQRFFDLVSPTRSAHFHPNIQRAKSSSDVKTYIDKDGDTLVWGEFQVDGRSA
# Assay: uncleaved DNA left, log2 of reads against the no-enzyme library (log2 ratio); higher = less cleavage (more negative = more Rep cleavage of the k-mer); sequences stand for … in CTCGTCCG…ACCGGAGA
# Protocol: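 A pool of 90-nt single-stranded DNAs with seven random bases just before the constant AC of the nick site (name = the seven bases) was cut by 3 µM recombinant His6-SUMO-tagged Rep nickase domain (300 nM DNA, 50 mM HEPES pH 8.0, 50 mM NaCl, 1 mM MnCl2, 1 h, 37 °C, three replicates). Uncut DNA was amplified and sequenced.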
row,Sequence,uncleaved DNA left (log2)
1,CATTTTG,-0.0282
2,CGACTCA,-0.00756
3,TTATGTG,-0.0159
4,TAGTGCG,-0.148
5,CTGCGCA,-0.162
6,ATGACGT,0.0951
7,GAGCCGT,0.0346
8,GGTCTAG,0.024
9,GCAGTAT,0.121
10,TCCTTAC,-0.172
11,ATGTTTT,-0.133
12,ATCTCTC,-0.166
13,TCTGAAG,-0.0932
14,TGTGGTT,-0.0671
15,GGCGGAA,0.107
16,TTAACGA,0.165
17,AGATTGC,-0.0209
18,GATTAGT,0.0475
19,GAGTCGT,-0.0582
20,GACGCAT,-0.1

row,Sequence,uncleaved DNA left (log2)
1,TACCGAG,0.0962
2,TTGCTCT,-0.121
3,TCCGCCA,-0.0277
4,CGCATTG,0.0647
5,TGCGCCT,-0.0301
6,TCGTACT,-0.252
7,CGGTTAC,-0.13
8,GAGGGCT,0.0378
9,TGCACTC,-0.068
10,TATAGTT,-0.122
11,TGGCGCG,-0.117
12,TATGGTT,-0.132
13,ACACAGA,0.157
14,GCCGAGG,0.0234
15,GCGCTTG,-0.175
16,ATGAGTC,-0.0199
17,TTTAAAA,0.203
18,CTTACAC,-0.0934
19,TTGGGTG,-0.159
20,AACTACA,0.141
